# Test results reported in PubChem BioAssay AID2147 (National Center for Advancing Translational Sciences (NCATS), 2009).
# The whole screen tested about 230,000 compounds, of which about 3,600 (1.6%) were called active. The inconclusive results got no clear call from the source; some entries with a clear call stand among them for comparison. Calls come from the whole dose curve; as a rule, active = well fitted inhibition curve with a large enough effect (not every such curve was filed as active); inconclusive = small, poorly fitted or top-dose-only effect, or another doubt; inactive = no such curve, though single readings can be large or run the other way. Where the call is inconclusive, the potency comes from a doubtful curve fit.
# Biological target: Lysine-specific demethylase 4E (Homo sapiens) (UniProt B2RXH2)
# UniProt B2RXH2, sequence (B2RXH2 whole entry, looked up, the tested form may be a part): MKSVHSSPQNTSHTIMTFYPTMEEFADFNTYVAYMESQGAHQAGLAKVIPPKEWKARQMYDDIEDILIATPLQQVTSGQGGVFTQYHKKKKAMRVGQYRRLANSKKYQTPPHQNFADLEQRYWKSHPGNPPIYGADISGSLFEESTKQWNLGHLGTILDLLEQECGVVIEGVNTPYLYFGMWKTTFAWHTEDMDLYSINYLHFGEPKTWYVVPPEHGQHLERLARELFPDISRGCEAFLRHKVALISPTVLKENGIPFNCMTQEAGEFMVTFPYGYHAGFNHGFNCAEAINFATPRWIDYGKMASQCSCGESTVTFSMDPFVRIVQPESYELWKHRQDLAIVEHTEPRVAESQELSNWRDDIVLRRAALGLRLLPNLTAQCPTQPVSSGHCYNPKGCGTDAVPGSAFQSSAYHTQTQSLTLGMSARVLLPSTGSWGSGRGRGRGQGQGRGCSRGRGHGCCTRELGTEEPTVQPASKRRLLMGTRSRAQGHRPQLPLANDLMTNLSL
# Assay: qHTS Assay for Inhibitors of Human Jumonji Domain Containing 2E (JMJD2E)
# Settings: JMJD2E catalytic domain, FDH-coupled NADH fluorescence (FDH is formaldehyde dehydrogenase); series mostly up to 57.1 µM; activity change, negative = inhibition: at the top concentration
# Note: nearly all actives have a fitted effect of over 50% in size.
# Potency is the fitted concentration of half-maximal effect; tags give direction and shape of the fitted curve.
# 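Throughout, for activity change, negative = inhibition: 0% = wells with enzyme and -100% = buffer wells without enzyme.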
Compound,"activity change, negative = inhibition",Potency
Nc1ccc(C(=O)O)cc1S(=O)(=O)O,inactive: 2.96%,
Cc1onc(-c2ccccc2)c1C(=O)Nc1sc2c(c1C#N)CCC(C)C2 (stereo not drawn),,"inconclusive: 39.8 µM [inhibitor, single point]"
Cc1c(C(=O)c2ccc(N(C)C)cc2)c2ccccn2c1CCC#N,,"inconclusive: 31.6 µM [inhibitor, single point]"
Cc1ccc(C(=O)CC2(O)C(=O)N(C)c3ccccc32)s1 (stereo not drawn),inactive: -2.39%,
CCCNC(=O)c1ccc2c(=O)c(O)c(C)[nH]c2c1,,"inconclusive: 35.5 µM [inhibitor, single point]"
COc1ccccc1CNC(=O)Cn1cccc1,inactive: 3.15%,
CCCn1c(-c2ccc(F)cc2)nc2c(NCCCN3CCCCC3C)nc(C)nc21 (stereo not drawn),,"inconclusive: 17.8 µM [inhibitor, partial curve]"
Cc1ccc(-c2nn3c(C)nnc3c3ccccc23)cc1S(=O)(=O)NC(C)c1ccccc1 (stereo not drawn),,"inconclusive: 39.8 µM [inhibitor, single point]"
CCOC(=O)C(C)Sc1ncnc2c1c(-c1ccccc1)cn2-c1ccc(OC)cc1 (stereo not drawn),,"inconclusive: 39.8 µM [inhibitor, single point]"
C=CCOCCN1C(=O)C2C3C=CC(C2C1=O)C1C2C(=O)N(CCOCC=C)C(=O)C2C31 (stereo not drawn),inactive: -1.24%,
c1ccc(Nc2ccc(-n3ccnc3)nn2)cc1,inactive: -0.252%,
Cc1c(CCOC(=O)c2cc([N+](=O)[O-])cc([N+](=O)[O-])c2)sc[n+]1CC(=O)c1ccccc1,inactive: -6.57%,
Cn1c(=O)[nH]c(=O)c2c1nc(N1CCCCC1)n2CCCSc1nnnn1-c1ccccc1,inactive: -5.98%,
Cc1cc(NC(=O)CN2CCC(C)CC2)no1,,"inconclusive: 35.5 µM [inhibitor, single point]"
CC(=O)Nc1sc(N/N=C\c2ccco2)nc1-c1cccs1,inactive: -23.4%,
CCN(CC)CCNC(=O)c1ccc2c(c1NCCO)C(=O)c1ccccc1C2=O,inactive: -7.69%,
CCn1nc(NC(=O)c2ccco2)c2cc3ccccc3nc21,,"inconclusive: 25.1 µM [inhibitor, partial curve]"
CCOc1cccc(C(=O)NC(=S)Nc2ccc(N3CCN(CC)CC3)cc2)c1,inactive: -0.788%,
Cc1nn(C)c(Oc2cccc(Cl)c2)c1C(=O)Nc1ccc(F)cc1,inactive: 1.91%,
CCC(=O)O[C@@]1(C(=O)SCF)[C@@H](C)C[C@H]2[C@@H]3C[C@@H](F)C4=CC(=O)C=C[C@@]4(C)[C@]3(F)[C@@H](O)C[C@]21C,inactive: -0.413% [at 25.5 µM],
C/C(=N\NC(=S)NC1CCCCC1)c1ccc(O)cc1,inactive: 1.38%,
CC(C)CNc1c(N)n(CC(C)C)c(=O)[nH]c1=O,,"inconclusive: 25.1 µM [inhibitor, partial curve]"
CC#CCOC(=O)c1c(C)nc2sc3c(c2c1N)CCC(O)C3 (stereo not drawn),,"inconclusive: 35.5 µM [inhibitor, single point]"
Cc1cc(C(=O)NCc2cccnc2)no1,inactive: -1.54%,

Compound,"activity change, negative = inhibition",Potency
Clc1ccccc1-c1ccc(/C=N/n2cnnc2)o1,,"inconclusive: 35.5 µM [inhibitor, single point]"
CCN(CC)S(=O)(=O)c1cccc(-c2nnc(SCC#N)n2Cc2ccccc2)c1,inactive: -4.08%,
CCOc1ccc(/C=C(\C(=O)O)c2ccc(S(=O)(=O)N3CCOCC3)s2)cc1OC,inactive: -4.06%,
O=C(Nc1ccncc1)c1ccc2ccccc2c1,,"inconclusive: 31.6 µM [inhibitor, single point]"
Cn1c(SCC(=O)NNC(=S)Nc2ccccc2)nnc1-c1ccccc1,inactive: 5.41%,
CCOC(=O)c1oc2ccccc2c1NC(=O)Cc1cccs1,,"inconclusive: 35.5 µM [inhibitor, single point]"
Cc1[nH][nH]c(=O)c1N=Nc1ccccc1C#N,inactive: -1.57%,
O=C(NC1CC1)C1=C[C@@H](c2c[nH]c3ccccc23)C[C@@H](OCc2ccc(CO)cc2)O1,,active: 25.1 µM
CCc1ccccc1N(CC(=O)N1CCN(c2ccc(F)cc2)CC1)S(C)(=O)=O,inactive: -2.82%,
CCCN=C1N/C(=C\c2ccco2)C(=O)N1c1ccccc1,,"inconclusive: 39.8 µM [inhibitor, single point]"
CCCCC(=O)Oc1ccccc1C(=O)O,,"inconclusive: 35.5 µM [inhibitor, partial curve]"
Cc1nc2ccccn2c1C(=O)/C=C/c1ccc(F)cc1,inactive: -0.332%,
OCCOCCNc1ncnc2sc(-c3ccccc3)cc12,,"inconclusive: 28.2 µM [inhibitor, partial curve]"
Cc1oc2c(CN3CCOCC3)c(O)ccc2c(=O)c1-c1ccccc1,,"inconclusive: 31.6 µM [inhibitor, partial curve]"
CCN(CC)C(=O)CSC1=C(C#N)C(c2cccs2)C=C(C)N1 (stereo not drawn),,"inconclusive: 39.8 µM [inhibitor, single point]"
Cc1cc(C)c2[nH]c(=O)c(C(c3nnnn3CC3CCCO3)N3CCC(C)CC3)cc2c1 (stereo not drawn),,"inconclusive: 35.5 µM [inhibitor, single point]"
Cc1ccc(NC(=O)c2sc3nc(C)nc(N4CCN(c5ccccn5)CC4)c3c2C)c(C)c1,,"inconclusive: 35.5 µM [inhibitor, single point]"
CCOC(=O)Cn1cnc2c(sc3nc(C)cc(C)c32)c1=O,,"inconclusive: 39.8 µM [inhibitor, single point]"
COc1ccc(-c2nc3c(c(=O)[nH]c(=O)n3Cc3ccccc3)n2C)cc1,,"inconclusive: 5.01 µM [inhibitor, single point]"
Nc1nc(SCC(=O)NC2CCCCC2)[nH]c(=O)c1-c1ccccc1,,"inconclusive: 35.5 µM [inhibitor, single point]"
Cc1cccnc1N(C(=O)Nc1cccc(Cl)c1)C1=NCC(C)(C)S1,inactive: -6.77%,
COc1cc2cc(CN(CCN3CCCC3)C(=O)Nc3ccccc3Cl)c(=O)[nH]c2cc1OC,,"inconclusive: 22.4 µM [inhibitor, partial curve]"
CC(=O)Nc1ccc(CN2CCCC(C(=O)c3cccc(C(F)(F)F)c3)C2)cc1 (stereo not drawn),,"inconclusive: 39.8 µM [inhibitor, single point]"
Cc1cc(=O)oc2cc3c(cc12)OCCO3,,"inconclusive: 28.2 µM [inhibitor, partial curve]"
